Data: publication PMC2928299
These are yes or no findings as the source states them, for the method shown. In cells and extracts the contact can be indirect. Some results given as binding are weak or reduced against the parent protein; the word gives no strength. Where a sequence is shown, tags or fusion partners need not be part of it.

T1: SBP-Flag Rnd3 (mouse) (UniProt P61588)
T1 sequence: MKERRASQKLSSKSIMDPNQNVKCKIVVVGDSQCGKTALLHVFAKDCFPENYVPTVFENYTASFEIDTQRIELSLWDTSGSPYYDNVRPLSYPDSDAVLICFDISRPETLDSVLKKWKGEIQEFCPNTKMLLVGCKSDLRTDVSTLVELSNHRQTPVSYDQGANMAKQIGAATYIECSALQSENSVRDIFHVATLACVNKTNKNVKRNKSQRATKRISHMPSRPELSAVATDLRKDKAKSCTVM

B1: Flag-Syx(1–393) (domain or fragment, UniProt Q66T02-1 1-393)
chain: MGTGPGVSGRRAAARPSSELPSPDSQLLWVGGHAHSSDSQVCHHADCQQLHHRGPLNLCETCDSKFHSTLHYDGHVRFDLPPQGSVLARNVSTRSCPPRTSPAADLEEEEEGCTDGKGDRKSAGLKISKKKARRRHTDDPSKECFTLKFDLNVDIETEIVPAMKKKSLGEVLLPVFERKGIALGKVDIYLDQSNTPLSLTFEAYRFGGHYLRVKAKPGDEGKVEQGVKDSKSLSLPALRPSGAGPPVSERVDPQSRRESSLDILAPGRRRKNMSEFLGEAGIPGHEPPAPSSCSLPVGSSGGTSSGINESWKNRAASRFSGFFSSSPSTSAFSREVDKMEQLESKLHAYSLFGLPRMPRRLRFDHDSWEEEEEDDEEDEESSGLRLEDSWREL
B2: Flag-Syx(77–800) (domain or fragment, UniProt Q66T02 77-800)
chain: RFDLPPQGSVLARNVSTRSCPPRTSPAADLEEEEEGCTDGKGDRKSAGLKISKKKARRRHTDDPSKECFTLKFDLNVDIETEIVPAMKKKSLGEVLLPVFERKGIALGKVDIYLDQSNTPLSLTFEAYRFGGHYLRVKAKPGDEGKVEQGVKDSKSLSLPALRPSGAGPPVSERVDPQSRRESSLDILAPGRRRKNMSEFLGEAGIPGHEPPAPSSCSLPVGSSGGTSSGINESWKNRAASRFSGFFSSSPSTSAFSREVDKMEQLESKLHAYSLFGLPRMPRRLRFDHDSWEEEEEDDEEDEESSGLRLEDSWRELTDGHEKLTRRQCHQQEAVWELLHTEVSYIRKLRVITNLFLCCLLNLQESGLLCEVEAERLFSNIPEIAKLHRGLWGSVMVPVLEKARRTRALLQPSDFLKGFKMFGSLFKPYIRYCMEEEGCMEYMRGLLRDNDLFRAYVTWAEKHQQCQRLKLSDMLAKPHQRLTKYPLLLKSVLRKTDDPRTKEAIVTMISSVERFIHHVNTCMRQRQERQRLAGVVSRIDAYEVVEGSNDEVDKLLKEFLHLDLTAPMPGTSPEETRQLLLEGSLRMKEGKDSKMDVYCFLFTDLLLVTKAVKKAERTKVIRPPLLVDKIVCRELRDPGSFLLIYLNEFHSAVGAYTFQASSQALCRSWVDTIYNAQNQLQQLRAQLSAQEHPGSQHLQSLEEEEDEQEEEGEESGTSAASSPT
B3: Flag-Syx(112–800) (domain or fragment, UniProt Q66T02 112-800)
chain: GCTDGKGDRKSAGLKISKKKARRRHTDDPSKECFTLKFDLNVDIETEIVPAMKKKSLGEVLLPVFERKGIALGKVDIYLDQSNTPLSLTFEAYRFGGHYLRVKAKPGDEGKVEQGVKDSKSLSLPALRPSGAGPPVSERVDPQSRRESSLDILAPGRRRKNMSEFLGEAGIPGHEPPAPSSCSLPVGSSGGTSSGINESWKNRAASRFSGFFSSSPSTSAFSREVDKMEQLESKLHAYSLFGLPRMPRRLRFDHDSWEEEEEDDEEDEESSGLRLEDSWRELTDGHEKLTRRQCHQQEAVWELLHTEVSYIRKLRVITNLFLCCLLNLQESGLLCEVEAERLFSNIPEIAKLHRGLWGSVMVPVLEKARRTRALLQPSDFLKGFKMFGSLFKPYIRYCMEEEGCMEYMRGLLRDNDLFRAYVTWAEKHQQCQRLKLSDMLAKPHQRLTKYPLLLKSVLRKTDDPRTKEAIVTMISSVERFIHHVNTCMRQRQERQRLAGVVSRIDAYEVVEGSNDEVDKLLKEFLHLDLTAPMPGTSPEETRQLLLEGSLRMKEGKDSKMDVYCFLFTDLLLVTKAVKKAERTKVIRPPLLVDKIVCRELRDPGSFLLIYLNEFHSAVGAYTFQASSQALCRSWVDTIYNAQNQLQQLRAQLSAQEHPGSQHLQSLEEEEDEQEEEGEESGTSAASSPT
B4: Flag-Syx(136–800) (domain or fragment, UniProt Q66T02 136-800)
chain: HTDDPSKECFTLKFDLNVDIETEIVPAMKKKSLGEVLLPVFERKGIALGKVDIYLDQSNTPLSLTFEAYRFGGHYLRVKAKPGDEGKVEQGVKDSKSLSLPALRPSGAGPPVSERVDPQSRRESSLDILAPGRRRKNMSEFLGEAGIPGHEPPAPSSCSLPVGSSGGTSSGINESWKNRAASRFSGFFSSSPSTSAFSREVDKMEQLESKLHAYSLFGLPRMPRRLRFDHDSWEEEEEDDEEDEESSGLRLEDSWRELTDGHEKLTRRQCHQQEAVWELLHTEVSYIRKLRVITNLFLCCLLNLQESGLLCEVEAERLFSNIPEIAKLHRGLWGSVMVPVLEKARRTRALLQPSDFLKGFKMFGSLFKPYIRYCMEEEGCMEYMRGLLRDNDLFRAYVTWAEKHQQCQRLKLSDMLAKPHQRLTKYPLLLKSVLRKTDDPRTKEAIVTMISSVERFIHHVNTCMRQRQERQRLAGVVSRIDAYEVVEGSNDEVDKLLKEFLHLDLTAPMPGTSPEETRQLLLEGSLRMKEGKDSKMDVYCFLFTDLLLVTKAVKKAERTKVIRPPLLVDKIVCRELRDPGSFLLIYLNEFHSAVGAYTFQASSQALCRSWVDTIYNAQNQLQQLRAQLSAQEHPGSQHLQSLEEEEDEQEEEGEESGTSAASSPT
B5: Flag-Syx(1–800) E156A/T157A (domain or fragment, UniProt Q66T02-1 1-800)
chain: MGTGPGVSGRRAAARPSSELPSPDSQLLWVGGHAHSSDSQVCHHADCQQLHHRGPLNLCETCDSKFHSTLHYDGHVRFDLPPQGSVLARNVSTRSCPPRTSPAADLEEEEEGCTDGKGDRKSAGLKISKKKARRRHTDDPSKECFTLKFDLNVDIAAEIVPAMKKKSLGEVLLPVFERKGIALGKVDIYLDQSNTPLSLTFEAYRFGGHYLRVKAKPGDEGKVEQGVKDSKSLSLPALRPSGAGPPVSERVDPQSRRESSLDILAPGRRRKNMSEFLGEAGIPGHEPPAPSSCSLPVGSSGGTSSGINESWKNRAASRFSGFFSSSPSTSAFSREVDKMEQLESKLHAYSLFGLPRMPRRLRFDHDSWEEEEEDDEEDEESSGLRLEDSWRELTDGHEKLTRRQCHQQEAVWELLHTEVSYIRKLRVITNLFLCCLLNLQESGLLCEVEAERLFSNIPEIAKLHRGLWGSVMVPVLEKARRTRALLQPSDFLKGFKMFGSLFKPYIRYCMEEEGCMEYMRGLLRDNDLFRAYVTWAEKHQQCQRLKLSDMLAKPHQRLTKYPLLLKSVLRKTDDPRTKEAIVTMISSVERFIHHVNTCMRQRQERQRLAGVVSRIDAYEVVEGSNDEVDKLLKEFLHLDLTAPMPGTSPEETRQLLLEGSLRMKEGKDSKMDVYCFLFTDLLLVTKAVKKAERTKVIRPPLLVDKIVCRELRDPGSFLLIYLNEFHSAVGAYTFQASSQALCRSWVDTIYNAQNQLQQLRAQLSAQEHPGSQHLQSLEEEEDEQEEEGEESGTSAASSPT
B6: Syx(145–216) (domain or fragment, UniProt Q66T02 145-216)
chain: FTLKFDLNVDIETEIVPAMKKKSLGEVLLPVFERKGIALGKVDIYLDQSNTPLSLTFEAYRFGGHYLRVKAK
B7: Flag-Syx(1–657) (domain or fragment, UniProt Q66T02-1 1-657)
chain: MGTGPGVSGRRAAARPSSELPSPDSQLLWVGGHAHSSDSQVCHHADCQQLHHRGPLNLCETCDSKFHSTLHYDGHVRFDLPPQGSVLARNVSTRSCPPRTSPAADLEEEEEGCTDGKGDRKSAGLKISKKKARRRHTDDPSKECFTLKFDLNVDIETEIVPAMKKKSLGEVLLPVFERKGIALGKVDIYLDQSNTPLSLTFEAYRFGGHYLRVKAKPGDEGKVEQGVKDSKSLSLPALRPSGAGPPVSERVDPQSRRESSLDILAPGRRRKNMSEFLGEAGIPGHEPPAPSSCSLPVGSSGGTSSGINESWKNRAASRFSGFFSSSPSTSAFSREVDKMEQLESKLHAYSLFGLPRMPRRLRFDHDSWEEEEEDDEEDEESSGLRLEDSWRELTDGHEKLTRRQCHQQEAVWELLHTEVSYIRKLRVITNLFLCCLLNLQESGLLCEVEAERLFSNIPEIAKLHRGLWGSVMVPVLEKARRTRALLQPSDFLKGFKMFGSLFKPYIRYCMEEEGCMEYMRGLLRDNDLFRAYVTWAEKHQQCQRLKLSDMLAKPHQRLTKYPLLLKSVLRKTDDPRTKEAIVTMISSVERFIHHVNTCMRQRQERQRLAGVVSRIDAYEVVEGSNDEVDKLLKEFLHLDLTAPMPGTSPEETRQLLL
B8: Flag-Syx (381–1033) (domain or fragment, UniProt Q66T02 381-1033)
chain: SSGLRLEDSWRELTDGHEKLTRRQCHQQEAVWELLHTEVSYIRKLRVITNLFLCCLLNLQESGLLCEVEAERLFSNIPEIAKLHRGLWGSVMVPVLEKARRTRALLQPSDFLKGFKMFGSLFKPYIRYCMEEEGCMEYMRGLLRDNDLFRAYVTWAEKHQQCQRLKLSDMLAKPHQRLTKYPLLLKSVLRKTDDPRTKEAIVTMISSVERFIHHVNTCMRQRQERQRLAGVVSRIDAYEVVEGSNDEVDKLLKEFLHLDLTAPMPGTSPEETRQLLLEGSLRMKEGKDSKMDVYCFLFTDLLLVTKAVKKAERTKVIRPPLLVDKIVCRELRDPGSFLLIYLNEFHSAVGAYTFQASSQALCRSWVDTIYNAQNQLQQLRAQLSAQEHPGSQHLQSLEEEEDEQEEEGEESGTSAASSPTILRKSSNSLDSEHCTSDGSTETLAMVVVEPGATLSSPEFEGGPVSSQSDESSLSNTASSVTPTSELLPLGPVDGRSCSMDSAYGTLSPTSLQDFVAPHPVVEPAPVPQTPSPQPSPRLRRRTPVQLLPRPPRLLKSKSEASLLQLLSGTPAARGVPPAPSRSLSELCLISVAPGVRTQRPLQEGGPGWNGPGMCDPCHGPQLSESENRPSHMTGGPADSARRRCREMPSGTMS
B9: Flag-Syx(162–800) (domain or fragment, UniProt Q66T02 162-800)
chain: AMKKKSLGEVLLPVFERKGIALGKVDIYLDQSNTPLSLTFEAYRFGGHYLRVKAKPGDEGKVEQGVKDSKSLSLPALRPSGAGPPVSERVDPQSRRESSLDILAPGRRRKNMSEFLGEAGIPGHEPPAPSSCSLPVGSSGGTSSGINESWKNRAASRFSGFFSSSPSTSAFSREVDKMEQLESKLHAYSLFGLPRMPRRLRFDHDSWEEEEEDDEEDEESSGLRLEDSWRELTDGHEKLTRRQCHQQEAVWELLHTEVSYIRKLRVITNLFLCCLLNLQESGLLCEVEAERLFSNIPEIAKLHRGLWGSVMVPVLEKARRTRALLQPSDFLKGFKMFGSLFKPYIRYCMEEEGCMEYMRGLLRDNDLFRAYVTWAEKHQQCQRLKLSDMLAKPHQRLTKYPLLLKSVLRKTDDPRTKEAIVTMISSVERFIHHVNTCMRQRQERQRLAGVVSRIDAYEVVEGSNDEVDKLLKEFLHLDLTAPMPGTSPEETRQLLLEGSLRMKEGKDSKMDVYCFLFTDLLLVTKAVKKAERTKVIRPPLLVDKIVCRELRDPGSFLLIYLNEFHSAVGAYTFQASSQALCRSWVDTIYNAQNQLQQLRAQLSAQEHPGSQHLQSLEEEEDEQEEEGEESGTSAASSPT

molecular target: T1, SBP-Flag Rnd3 (mouse); test: pull-down; streptavidin (SBP) pull-down from lysates of co-transfected 293T cells, SBP-Flag GTPase as bait; beads 1 h at 4°C, 3 washes, elution with 2 mM biotin; immunoblot for Flag

binding, no binding:
B8
B9

binding, binds:
B1
B2
B3
B4
B5
B6
B7
